Laboratory results as given in publication PMC4336329 (PLoS ONE, 2015).
In all, about 310,000 compounds went through this assay and about 14,000 (4.5%) showed an effect of 50% or more. Effects have a minus sign here. Some of the results follow.

Each compound was assayed against human ether-à-go-go-related gene (hERG) potassium channel (human, UniProt Q12809) (assay: primary screen, population patch clamp on CHO cells stably expressing hERG).
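Note: peak tail current of the secondary pulse compared with the same well before compound.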

Chain of human ether-à-go-go-related gene (hERG) potassium channel (Q12809 whole entry, looked up): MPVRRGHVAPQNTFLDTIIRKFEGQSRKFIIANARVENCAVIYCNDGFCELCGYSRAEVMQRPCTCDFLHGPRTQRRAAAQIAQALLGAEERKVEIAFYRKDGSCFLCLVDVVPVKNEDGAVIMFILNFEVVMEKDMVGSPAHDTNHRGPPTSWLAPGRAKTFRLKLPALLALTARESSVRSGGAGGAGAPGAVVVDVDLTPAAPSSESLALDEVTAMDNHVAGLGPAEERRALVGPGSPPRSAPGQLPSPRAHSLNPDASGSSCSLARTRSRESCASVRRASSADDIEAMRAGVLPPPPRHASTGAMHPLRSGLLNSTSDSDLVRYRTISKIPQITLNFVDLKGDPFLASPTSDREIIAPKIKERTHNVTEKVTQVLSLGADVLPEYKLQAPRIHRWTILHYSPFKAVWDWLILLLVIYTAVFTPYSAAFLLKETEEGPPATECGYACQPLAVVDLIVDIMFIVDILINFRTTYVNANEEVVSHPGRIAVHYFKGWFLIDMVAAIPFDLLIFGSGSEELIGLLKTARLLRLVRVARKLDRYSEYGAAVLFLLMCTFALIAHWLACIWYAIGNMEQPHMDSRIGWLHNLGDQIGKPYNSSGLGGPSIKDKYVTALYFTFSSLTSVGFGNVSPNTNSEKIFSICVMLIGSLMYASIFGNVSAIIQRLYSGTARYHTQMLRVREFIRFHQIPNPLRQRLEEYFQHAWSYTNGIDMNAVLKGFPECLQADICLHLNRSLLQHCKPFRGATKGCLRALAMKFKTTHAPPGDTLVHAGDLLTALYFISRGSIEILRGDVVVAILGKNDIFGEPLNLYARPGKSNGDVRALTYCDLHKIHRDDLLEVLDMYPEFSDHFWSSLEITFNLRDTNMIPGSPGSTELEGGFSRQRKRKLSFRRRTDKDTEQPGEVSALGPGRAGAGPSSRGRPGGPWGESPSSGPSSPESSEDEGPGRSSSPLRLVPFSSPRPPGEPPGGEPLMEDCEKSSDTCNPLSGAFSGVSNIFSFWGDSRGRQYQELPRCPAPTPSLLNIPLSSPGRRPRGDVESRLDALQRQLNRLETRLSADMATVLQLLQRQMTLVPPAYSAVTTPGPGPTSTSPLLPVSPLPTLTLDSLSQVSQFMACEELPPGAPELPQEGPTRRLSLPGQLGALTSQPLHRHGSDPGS

SMILES	hERG current change (%, negative = inhibition) at 10uM
NS(=O)(=O)c1ccc(CCNC(=O)C(=O)NCC2OCCN2S(=O)(=O)c2ccc(Cl)cc2)cc1 (stereo not shown)	7.23%
CCOC(=O)c1cnn(-c2ccccc2)c1-n1cccc1C(=O)C(=O)Nc1ccccc1	4.93%
COc1ccc(C(=O)NC(=S)Nc2ccc3oc(=O)ccc3c2)cc1OC	13.5%
CCCCCCCCCCCCC(NC(C)=O)(C(=O)OCC)C(=O)OCC	12.7%
COc1cccc(C(=O)N2CCN(S(=O)(=O)Cc3ccccc3)CC2)c1	-3.18%
CCCCn1c(O)c(C(C)=NCc2ccco2)c(=O)[nH]c1=O	-7.3%
C=CC1CN2CCC1CC2c1[nH]c2ccccc2c1CCO (stereo not shown)	-32.2%
COc1ccc(NC(=O)[C@@H](NC(=O)N2C[C@H]3C[C@@H](C2)c2cccc(=O)n2C3)C(C)C)cc1	10.9%
CN(C)c1cc[n+](CC(=O)Nc2cc(C(F)(F)F)ccc2Cl)cc1.[Cl-]	7.63%
O=C(COc1ccccc1[N+](=O)[O-])OCC(=O)N1CCC(Cc2ccccc2)CC1	6.08%
N#Cc1c(N2CCSCC2)nsc1-c1ccccc1Cl	4.75%
CCN(C(=O)c1cc(S(=O)(=O)N2CCCCC2)c[nH]1)c1ccc(OC)cc1	0.475%
NNC(=O)c1nc(Cl)c(Cl)c(N)c1Cl	8.65%
O=C1CCC/C(=N\NC(=O)c2ccc(CSc3cccc4cccnc34)cc2)C1	12.6%
CC(C)(CO)Nc1ccc([N+](=O)[O-])cc1[N+](=O)[O-]	-8.26%
Cn1c(Cn2nnc3ccccc32)nnc1SCC(=O)N1c2ccccc2Sc2ccccc21	-22.1%
CCNc1ccc(C2(O)C(=O)c3ccccc3C2=O)cc1	12.6%
COc1nc(OC)nc(Oc2ccc([N+](=O)[O-])cc2Cl)n1	12.3%
O=C(c1cccc(F)c1)N(Cc1nc2ccccc2c(=O)[nH]1)C1CCCC1	-30.4%
CC(C)(C)C(=O)COc1ccccc1[N+](=O)[O-]	-0.00642%
O=C1Nc2ccccc2/C1=C\c1cccn1-c1ccc(OC(F)(F)F)cc1	5.54%
O=c1[nH]c(=S)n(Cc2ccc(F)cc2)c(O)c1C=NCc1ccc2c(c1)OCO2	20.8%

SMILES	hERG current change (%, negative = inhibition) at 10uM
Cc1nnc(SCC(=O)N2CCc3ccccc3C2)n1-c1ccccc1	-23.6%
CCC(C)(C)NC(=O)C(c1ccc(C)cc1)N(CC1CCCO1)C(=O)CNC(=O)c1cccs1 (stereo not shown)	-4.98%
CCCn1c(SCC(=O)NC2CCCCC2)nnc1-c1ccco1	-20.3%
Cn1c(SCC(=O)NCCc2ccc(S(N)(=O)=O)cc2)nc2ccccc2c1=O	3.46%
COc1cccc(CSc2nnc(CSc3nc4nc(C)cc(C)n4n3)s2)c1	-54.4%
Cc1ccc(C(=O)NNC(=O)c2csc(N3CCOCC3)n2)s1	-6.58%
C[C@H]1NC(=O)[C@@]2(C)[C@@H](c3ccccc3)[C@H]3COc4ccccc4[C@H]3N2C1=O	4.02%
O=c1[nH]c(=O)n(-c2cccc3ccccc23)c(O)c1/C=N/N1CCCCC1c1cccnc1 (stereo not shown)	12.2%
O=C(COC(=O)c1ccc(O)cc1)Nc1cc(S(=O)(=O)N2CCOCC2)ccc1Cl	-21%
O=c1[nH]c(-c2ccccc2O)nc2c1CCCC2	12.8%
CCn1c(SCC(=O)Nc2cc(C(C)(C)C)nn2-c2ccccc2)nnc1-c1cccs1	-47.7%
Cn1c(CCNC(=O)C2CCCCC2)nc2cc([N+](=O)[O-])ccc21	-45.3%
O=C(c1cc(-c2cccs2)nc2ccccc12)N1CCN(S(=O)(=O)c2ccccc2)CC1	-5.65%
COc1ccc(CC(=O)OCC(=O)NCc2ccc(Cl)cc2)cc1	15.5%
CC1CCCCN1S(=O)(=O)c1ccccc1[N+](=O)[O-] (stereo not shown)	6.98%
COc1ccc(CCNC(=O)CNC(=O)c2nn(-c3ccc(OC)c(OC)c3)c(=O)c3ccccc23)cc1OC	18.5%
CC(C)[C@H](NC(=O)N1c2ccccc2NC(=O)[C@@H]1C(C)C)C(=O)N[C@@H](Cc1ccccc1)C(=O)O	11.8%
COc1ccc(CCN2CC(C(=O)NCc3nc4ccccc4n3C)CCC2=O)cc1 (stereo not shown)	-15.6%
COCCCNC1CS(=O)(=O)CC1O.Cl (stereo not shown)	23.4%
COc1ccc(-c2nn(-c3ccccc3)cc2/C=C\C(=O)Nc2ccc(C(=O)O)cc2)cc1	21%
COc1cc(Cl)cc(C2NC(=O)NC(C)=C2C(C)=O)c1OCC(=O)O (stereo not shown)	-1.87%
